# In PubChem BioAssay AID485294 (National Center for Advancing Translational Sciences (NCATS), 2010):
# Screen size: about 370,000 compounds; about 150 (0.041%) were called active. The inconclusive results got no clear call from the source; some entries with a clear call stand among them for comparison. The call rests on the fitted dose curve; in most records, active means well fitted inhibition curve with a large enough effect; inconclusive means small, poorly fitted or top-dose-only effect; inactive means flat fitted curve, though single readings scatter. Potencies of inconclusive entries are left out as doubtful fits.
# Biological target: Beta-lactamase (Escherichia coli (strain K12)) (UniProt P00811)
# UniProt P00811, sequence (P00811 whole entry, looked up): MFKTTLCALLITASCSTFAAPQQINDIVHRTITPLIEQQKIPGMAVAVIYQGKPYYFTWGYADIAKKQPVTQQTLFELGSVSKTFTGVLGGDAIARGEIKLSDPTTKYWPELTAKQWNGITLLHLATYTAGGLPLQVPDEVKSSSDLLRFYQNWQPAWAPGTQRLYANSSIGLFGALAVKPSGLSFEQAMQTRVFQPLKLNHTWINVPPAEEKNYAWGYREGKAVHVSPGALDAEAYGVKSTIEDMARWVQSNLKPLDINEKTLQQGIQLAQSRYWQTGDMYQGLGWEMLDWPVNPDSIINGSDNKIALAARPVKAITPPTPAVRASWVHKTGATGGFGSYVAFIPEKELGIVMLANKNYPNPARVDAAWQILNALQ
# Test: qHTS Inhibitors of AmpC Beta-Lactamase (assay with detergent); further: nearly all actives have a fitted effect of over 25% in size
# Details: AmpC hydrolysis of nitrocefin, absorbance 480 nm, 0.01% Triton; series mostly up to 114 µM
# Method in brief: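 20 mM phosphate pH 7.0 + 0.01% (detergent screen) or 0.0001% Triton X-100; 5.3 nM AmpC reagent; cpd preinc 15 min RT; nitrocefin (800 uM stock) to start; A480 q20 s × 4 min; Activity was normalised to no-enzyme and no-compound control wells.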
# Potency means the concentration at half of the fitted maximal effect; tags describe the fitted curve by direction and shape.
row,Structure (SMILES),Potency
1,Cc1nc2ccc(S(=O)(=O)NC(C(=O)N3CCCCCC3)C(C)C)cc2s1 (stereo not drawn),"inconclusive [inhibitor, full curve, poor fit]"
2,N/C(=N\OS(=O)(=O)c1ccc(Br)cc1)c1ccncc1,"inconclusive [inhibitor, full curve, poor fit]"
3,Cc1cc(NCc2ccccn2)nc2ccccc12,inactive
4,c1ccc(N2CCN(CC3CCCCC3)CC2)cc1,"inconclusive [inhibitor, full curve, poor fit]"
5,CCOC(=O)c1ncn2c1C(=O)OC2(C)C,"inconclusive [inhibitor, full curve]"
6,COc1ccccc1N1CCN(C(=O)C2CCN(S(=O)(=O)c3ccc4c(c3)CC(C)N4C(=O)C3CC3)CC2)CC1 (stereo not drawn),"inconclusive [inhibitor, full curve, poor fit]"
7,O=C(O)c1cc(S(=O)(=O)N2CCOCC2)c(Sc2ccccn2)cc1Sc1ccccn1,"inconclusive [inhibitor, partial curve, poor fit]"
8,C=C(C)Cn1c(C)cc(C)c(S(=O)(=O)c2ccc(C)cc2)c1=O,inactive
9,COc1cccc(/C=N/Nc2ncnc3scc(-c4ccccc4)c23)c1O,inactive
10,Cc1ccc(S(=O)(=O)c2nc(S(C)(=O)=O)sc2NCc2ccc3c(c2)OCO3)cc1,"inconclusive [inhibitor, full curve, poor fit]"
11,OCCCCNCc1ccc(OCc2ccccc2Cl)cc1,inactive
12,CCN(CC(=O)Nc1ccc(NC(C)=O)cc1)C(=O)C1CCCC1,"inconclusive [inhibitor, full curve, poor fit]"
13,CCCCNc1ncnc2c1cnn2-c1ccc(C)cc1C,"inconclusive [inhibitor, full curve]"
14,Cc1ccc(NS(=O)(=O)c2ccc(C(=O)N3CCCN(C)CC3)cc2)cc1,"inconclusive [inhibitor, full curve, poor fit]"
15,COc1ccc(F)cc1CN1CCN(C(=O)CCC(=O)Nc2nnc(C(C)C)s2)CC1,"inconclusive [inhibitor, partial curve, poor fit]"
16,O=C(/C=C/c1ccccc1)Nn1cnnc1,"inconclusive [inhibitor, partial curve, poor fit]"
17,Cc1ccc(NC(=O)C2CCCN(S(=O)(=O)c3ccc4[nH]c(=O)ccc4c3)C2)c(C)c1 (stereo not drawn),"inconclusive [inhibitor, full curve, poor fit]"
18,COc1ccc(C(=O)Nc2scc(-c3ccc(Cl)cc3Cl)c2C(N)=O)cc1,inactive
19,COc1cccc(OCCNCc2ccccc2)c1,"inconclusive [inhibitor, partial curve, poor fit]"
20,COc1ccc2cc(/C(C)=N/NC(=O)C3CC3)ccc2c1,"inconclusive [inhibitor, full curve, poor fit]"
21,Nc1nnc(SCc2cc3c(cc2Cl)OCO3)s1,"inconclusive [inhibitor, full curve, poor fit]"
22,CCCCOC(=O)Nc1cccc(C(C)=O)c1,"inconclusive [inhibitor, full curve, poor fit]"
23,Cc1cc(N(CCO)Cc2ccccc2)n2nc(-c3ccc(C(C)(C)C)cc3)nc2n1,inactive

row,Structure (SMILES),Potency
1,COc1ccccc1C(c1nnnn1Cc1ccccc1)N1CCN(c2nc3ccccc3s2)CC1 (stereo not drawn),"inconclusive [inhibitor, full curve, poor fit]"
2,Cc1c(C(=O)N2CCC2)oc2ccc(Br)cc12,"inconclusive [inhibitor, full curve, poor fit]"
3,CCN1C(=O)[C@@H]2Cc3c([nH]c4ccccc34)C(c3cc(OC)c(OC)c(OC)c3)N2C1=S (stereo partly drawn),inactive
4,Cc1ccc(C(=O)N(c2ccccn2)C(C)c2ccco2)cc1C (stereo not drawn),"inconclusive [inhibitor, single point]"
5,COc1cc(/C=N/Nc2nc(C)cc(=O)[nH]2)ccc1OC(=O)c1cccnc1,"inconclusive [inhibitor, full curve]"
6,COc1ccc(/C=N/NC(=O)CNC(=O)COc2ccccc2)cc1,"inconclusive [inhibitor, single point]"
7,CC1(c2cccc(Br)c2)NC(=O)N(CC(=O)Nc2ccc(F)cc2)C1=O (stereo not drawn),"inconclusive [inhibitor, full curve, poor fit]"
8,CCOCCn1ccc2c(OCC(=O)Nc3cccc([N+](=O)[O-])c3)cccc2c1=O,inactive
9,Cc1ccc(NC(=O)CNCc2cccs2)c(Br)c1,"inconclusive [inhibitor, full curve, poor fit]"
10,O=C(CNC(=O)OCc1ccccc1)Oc1cc2oc(=O)cc(-c3ccccc3)c2cc1Cl,"inconclusive [inhibitor, full curve, poor fit]"
11,COc1cc2c(cc1OC)C(COc1ccc(F)cc1)N(C(=O)c1cccc(F)c1)CC2 (stereo not drawn),inactive
12,Cc1nn(CCOc2ccccc2)c(=O)n1-c1ccccc1,inactive
13,COCCNC(=O)Cn1cc(S(=O)(=O)N2CCN(c3ccccc3F)CC2)c2ccccc2c1=O,"inconclusive [inhibitor, partial curve]"
14,COc1ccc(N(C(=O)c2ccc(C)cc2)S(=O)(=O)c2cccs2)cc1,"inconclusive [inhibitor, full curve, poor fit]"
15,CC(C)(C)c1csc(NNC(=O)c2ccc(Br)cc2)n1,inactive
16,CCc1ccc(NC(=O)CCNC(=O)N2C[C@H]3C[C@@H](C2)c2cccc(=O)n2C3)cc1,"inconclusive [inhibitor, full curve, poor fit]"
17,O=C(NCc1ccc2c(c1)OCO2)Nc1ccc([N+](=O)[O-])cc1,"inconclusive [inhibitor, partial curve, poor fit]"
18,O=C(Nc1ccc(F)cc1F)c1ccccc1NC(=O)C1CC=CCC1C(=O)O (stereo not drawn),"inconclusive [inhibitor, partial curve]"
19,CC(=O)c1cccc(NC(=O)c2ccc(N(Cc3ccccc3)S(C)(=O)=O)cc2)c1,inactive
20,Cc1ccc(C)c(S(=O)(=O)N2CCN(CC(=O)Nc3sccc3C#N)CC2)c1,"inconclusive [inhibitor, full curve]"
21,CCOC(=O)c1c(NC(C)=O)c2c3c(sc2n1Cc1cccc(Cl)c1)CCCC3,inactive
22,Cc1ccc(C(NC(=O)N2CCCCC2)=C(Cl)Cl)cc1F,"inconclusive [inhibitor, partial curve, poor fit]"
23,COc1ccc(C2Nc3ccccc3NC3=C2C(=O)CC(C)(C)C3)cc1O (stereo not drawn),inactive

row,Structure (SMILES),Potency
1,CC(=O)N1CCN2C(=O)C1CCCC(=O)c1cc(C(C)C)ccc12 (stereo not drawn),"inconclusive [inhibitor, single point]"
2,CCOc1cccc(SCc2noc(C(=O)NCC3CCCO3)c2C(=O)O)c1 (stereo not drawn),"inconclusive [inhibitor, full curve, poor fit]"
3,COc1ccc(N2CCN(c3cc(C)nc4ccc(OC)cc34)CC2)cc1,inactive
4,O=C(CNC(=O)N1CC(=O)Nc2ccccc21)NCc1ccccc1,"inconclusive [inhibitor, full curve, poor fit]"
5,O=C(O)c1cn(-c2ccccc2)nc1-c1cccnc1,inactive
6,CSc1cccc(NC(=O)C(C)Sc2ccc(C)cc2)c1 (stereo not drawn),"inconclusive [inhibitor, single point]"
7,O=C(COc1ncnc2sccc12)N1CCN(S(=O)(=O)c2ccc(Cl)cc2)CC1,"inconclusive [inhibitor, single point]"
8,Cn1nnc(NC(=S)NC(=O)c2cccs2)n1,inactive
9,COc1ccc(Cl)cc1S(=O)(=O)NCc1nc2nc(C)cc(C)n2n1,"inconclusive [inhibitor, partial curve, poor fit]"
10,Cn1cc(/C=N/n2cnc3sc4c(c3c2=O)CCCC4)c2ccccc21,inactive
11,O=C(Cn1c(=O)oc2ccccc21)Nc1ccc2c(c1)OCCO2,inactive
12,O=C(CCCCCN1C(=O)CCC1=O)Nc1ccc(Cl)c(C(F)(F)F)c1,"inconclusive [inhibitor, single point]"
13,O=C(NCc1ccc(F)cc1)c1cnc(-c2ccccn2)nc1C(F)(F)F,"inconclusive [inhibitor, full curve, poor fit]"
14,CCOc1ccc2nc(NC(=O)c3cccn(Cc4ccc(Cl)cc4)c3=O)sc2c1,inactive
15,CCOc1cc(CNC(=O)C(NS(=O)(=O)c2cccs2)C(C)C)cc(OCC)c1OCC (stereo not drawn),inactive
16,CC(=O)c1ccc(-n2cc(C#N)c(=O)[nH]c2=O)cc1,"inconclusive [inhibitor, full curve, poor fit]"
17,O=C1c2ccccc2C(=O)N1Nc1ccccc1,inactive
18,CCN1CCN(c2ccc(S(=O)(=O)N3CCCCC3)cc2N)CC1,"inconclusive [inhibitor, partial curve]"
19,O=C(c1ccc(O)cc1)c1ccc(Cl)cc1,"inconclusive [inhibitor, partial curve, poor fit]"
20,COC(=O)Cn1cnc2sc3c(c2c1=O)CCCC3,"inconclusive [inhibitor, full curve, poor fit]"
21,CCOc1ccc2nc(NC(=O)CSC3=NCCS3)sc2c1,"inconclusive [inhibitor, partial curve]"
22,COc1ccc(-c2ccc(-c3nnc(-c4cc(OC)ccc4OC)o3)cc2)cc1,"inconclusive [inhibitor, full curve]"
